The whole screen tested about 5,500 compounds, of which about 2,000 (36%) were called active. This list was built around the results that the source calls inconclusive (neither active nor inactive); the mix of calls is not that of the screen. Cut-off read from the data, not from the text of the source: active = normalized growth mostly below about 0.91 (no sharp cut-off); inconclusive = no clear call, values can overlap the other calls; inactive = mostly above about 0.92. A structure can be active in one record and inactive in another.
Test: chemical genetic growth profiling, strain panel (AID 1159580);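 note: tested at 20 µM; growth read once vehicle control cultures reached saturation at 30 °C; 1 = growth at the plate median or of vehicle wells; lower values mean less growth of the strain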
Settings: S. cerevisiae deletion strains, growth OD
[1] = locus YBR160W, strain CDC28, stronger effect = lower value
[2] = locus YDL132W, strain cdc53, stronger effect = lower value
[3] = locus YFL009W, strain cdc4, stronger effect = lower value
[4] = locus YJL128C, strain PBS2, stronger effect = lower value
[5] = locus YNL161W, strain CBK1, stronger effect = lower value
[6] = locus YDL101C, strain DUN1, stronger effect = lower value
[7] = locus YJL157C, strain FAR1, stronger effect = lower value
[8] = locus YKL067W, strain YNK1, stronger effect = lower value
[9] = locus YPL031C, strain PHO85, stronger effect = lower value
[10] = locus YPR106W, strain ISR1, stronger effect = lower value
[11] = locus YHR030C, strain SLT2, stronger effect = lower value

Cc1nccc2c1[nH]c1ccccc12
normalized growth (locus YNL224C, strain SQS1, stronger effect = lower value): inconclusive: 0.524 [sensitive]

COC(=O)/C=C1/OC(c2ccc(OC)cc2)=CC1=O
normalized growth [1]: inconclusive: 0.756 [sensitive] | normalized growth (locus YDL028C, strain MPS1, stronger effect = lower value): inconclusive: 0.887 [sensitive] | normalized growth (locus YDL108W, strain KIN28, stronger effect = lower value): inconclusive: 0.818 [sensitive] | normalized growth [2]: inconclusive: 0.562 [sensitive] | normalized growth [3]: inconclusive: 0.814 [sensitive] | normalized growth [4]: inconclusive: 0.556 [sensitive] | normalized growth (locus YJR016C, strain ILV3, stronger effect = lower value): inconclusive: 0.816 [sensitive] | normalized growth [5]: inconclusive: 0.535 [sensitive] | normalized growth (locus YNL207W, strain RIO2, stronger effect = lower value): inconclusive: 0.605 [sensitive] | normalized growth (locus YPR111W, strain DBF20, stronger effect = lower value): inconclusive: 0.578 [sensitive]

CN1CCN(CCCN2c3ccccc3Sc3ccc(Cl)cc32)CC1
normalized growth (locus YBR279W, strain paf1, stronger effect = lower value): inconclusive: 0.907 [sensitive]

CN(C)CC/C=C1\c2ccccc2Sc2ccc(Cl)cc21
normalized growth (locus YKR001C, strain vps1, stronger effect = lower value): inconclusive: 0.899 [sensitive]

O=[N+]([O-])c1cc([As](=O)(O)O)ccc1O
normalized growth (locus YKR026C, strain gcn3, stronger effect = lower value): inconclusive: 0.917 [sensitive]

O=c1c(O)c(-c2ccc(O)cc2O)oc2cc(O)cc(O)c12
normalized growth (locus YGR252W, strain gcn5, stronger effect = lower value): inconclusive: 1.25 [resistant]

O=S(=O)(Nc1ccc(Oc2ccc(Cl)cc2)cc1)c1ccccc1
normalized growth (locus YKL171W, strain NNK1, stronger effect = lower value): inconclusive: 0.639 [sensitive] | normalized growth (locus YMR263W, strain SAP30, stronger effect = lower value): inconclusive: 0.544 [sensitive]

CS(=O)(=O)CCCCN=C=S
normalized growth (locus YAL026C, strain drs2, stronger effect = lower value): inconclusive: 0.785 [sensitive]

COc1ccc(-c2c(OC)c3c(OC)c4c(cc3oc2=O)OC(C)(C)C=C4)cc1
normalized growth (locus YLR418C, strain cdc73, stronger effect = lower value): inconclusive: 1.17 [resistant]

O=C(O)c1cc(O)c2c(c1)[C@@H]([C@H]1c3cc(C(=O)O)cc(O)c3C(=O)c3c(O[C@H]4O[C@H](CO)[C@@H](O)[C@H](O)[C@H]4O)cccc31)c1cccc(O[C@H]3O[C@H](CO)[C@@H](O)[C@H](O)[C@H]3O)c1C2=O
normalized growth (locus YER111C, strain swi4, stronger effect = lower value): inconclusive: 1.09 [resistant] | normalized growth (locus YJL115W, strain asf1, stronger effect = lower value): inconclusive: 1.11 [resistant] | normalized growth (locus YKR091W, strain srl3, stronger effect = lower value): inconclusive: 1.08 [resistant]

CC[C@H]1OC(=O)[C@H](C)[C@@H](O[C@H]2C[C@@](C)(OC)[C@@H](O)[C@H](C)O2)[C@H](C)[C@@H](O[C@@H]2O[C@H](C)C[C@H](N(C)C)[C@H]2O)[C@](C)(O)C[C@@H](C)[C@@H]2N[C@@H](COCCOC)O[C@H]([C@H]2C)[C@]1(C)O
normalized growth (locus YGL086W, strain mad1, stronger effect = lower value): inconclusive: 0.841 [sensitive]

CC1=NN(c2cccc(S(N)(=O)=O)c2)C(=O)C1
normalized growth (locus YPL241C, strain CIN2, stronger effect = lower value): inconclusive: 1.15 [resistant]

N#CC(C(=O)Nc1cccc(C(F)(F)F)c1)C(=S)Nc1ccccc1Cl (configuration not stated)
normalized growth (locus YBL105C, strain PKC1, stronger effect = lower value): inconclusive: 0.594 [sensitive] | normalized growth (locus YBR135W, strain CKS1, stronger effect = lower value): inconclusive: 0.55 [sensitive] | normalized growth (locus YBR136W, strain MEC1, stronger effect = lower value): inconclusive: 0.549 [sensitive] | normalized growth [1]: inconclusive: 0.549 [sensitive] | normalized growth [6]: inconclusive: 0.551 [sensitive] | normalized growth (locus YDR226W, strain ADK1, stronger effect = lower value): inconclusive: 0.766 [sensitive] | normalized growth (locus YHR082C, strain KSP1, stronger effect = lower value): inconclusive: 0.656 [sensitive] | normalized growth [4]: inconclusive: 0.565 [sensitive] | normalized growth [7]: inconclusive: 0.525 [sensitive] | normalized growth (locus YJR066W, strain TOR1 (second series), stronger effect = lower value): inconclusive: 0.49 [sensitive] | normalized growth [8]: inconclusive: 0.533 [sensitive] | normalized growth (locus YKL203C, strain TOR2, stronger effect = lower value): inconclusive: 0.669 [sensitive] | normalized growth [5]: inconclusive: 0.545 [sensitive] | normalized growth (locus YNL222W, strain SSU72, stronger effect = lower value): inconclusive: 0.542 [sensitive] | normalized growth (locus YOR119C, strain RIO1, stronger effect = lower value): inconclusive: 0.652 [sensitive] | normalized growth [9]: inconclusive: 0.624 [sensitive] | normalized growth [10]: inconclusive: 0.659 [sensitive]

O=C(O)C1=CCCNC1
normalized growth (locus YAL040C, strain CLN3, stronger effect = lower value): inconclusive: 0.85 [sensitive]

CC(=O)OCC(=O)[C@@]1(O)CCC2C3CCC4=CC(=O)CC[C@]4(C)[C@@]3(F)[C@@H](O)C[C@@]21C (some centres not stated)
normalized growth (locus YNL250W, strain rad50, stronger effect = lower value): inconclusive: 1.21 [resistant]

O=[N+]([O-])c1ccc(S(=O)(=O)c2ccccc2)nc1S(=O)(=O)c1ccccc1
normalized growth [4]: inconclusive: 0.616 [sensitive] | normalized growth [7]: inconclusive: 0.654 [sensitive] | normalized growth [8]: inconclusive: 0.586 [sensitive] | normalized growth (locus YNL307C, strain MCK1 (second series), stronger effect = lower value): inconclusive: 0.652 [sensitive] | normalized growth [9]: inconclusive: 0.655 [sensitive]

CC(C)(C)C(=O)/C(C#N)=C/c1c(Cl)cccc1Cl
normalized growth [1]: inconclusive: 0.767 [sensitive] | normalized growth [6]: inconclusive: 0.728 [sensitive] | normalized growth [2]: inconclusive: 0.647 [sensitive] | normalized growth [3]: inconclusive: 0.682 [sensitive] | normalized growth (locus YFR003C, strain YPI1, stronger effect = lower value): inconclusive: 0.801 [sensitive] | normalized growth [4]: inconclusive: 0.64 [sensitive] | normalized growth [10]: inconclusive: 0.823 [sensitive]

COc1ccc2c3c([nH]c2c1)C(C)=NCC3
normalized growth (locus YCL011C, strain gbp2, stronger effect = lower value): inconclusive: 0.572 [sensitive]

O=C1Nc2ccccc2/C1=C\c1c[nH]c2ccccc12
normalized growth [4]: inconclusive: 0.64 [sensitive]

CN1CCN(c2nc3cc(C(F)(F)F)ccc3n3cccc23)CC1
normalized growth (locus YNL175C, strain NOP13, stronger effect = lower value): inconclusive: 1.13 [resistant]

Cc1cc(/C=C/c2ccc3cc(N(C)C)ccc3[n+]2C)c(C)n1-c1ccccc1
normalized growth (locus YKL009W, strain mrt4, stronger effect = lower value): inconclusive: 1.25 [resistant]

CC(C)(C)c1csc(NNC(=O)c2ccc(Cl)cc2)n1
normalized growth [11]: inconclusive: 0.857 [sensitive]

CC1=CC(=O)C(CCOCCC2=CC(=O)C(C)=CC2=O)=CC1=O
normalized growth [11]: inconclusive: 0.696 [sensitive] | normalized growth [7]: inconclusive: 0.641 [sensitive]

From PubChem BioAssay AID1159580 (chemical genetic matrix, 2015)
